# Source: PubChem BioAssay AID1347073 (National Center for Advancing Translational Sciences (NCATS), 2019)
# Screen size: about 45,000 compounds; about 200 (0.44%) were called active. Not shown: some 7% with an inconclusive outcome. The call rests on the fitted dose curve; in most records, active means well fitted activation curve with a large enough effect; inconclusive means small, poorly fitted or top-dose-only effect; inactive means no such curve, though single readings can be large or run the other way. Some of the results follow.
# Assay: qHTS of TDP-43 Inhibitors: NCGC Sytravon Library Screen; further: 0% is about no effect; nearly all actives have a fitted effect of over 55% in size
# Settings: yeast TDP-43 toxicity rescue, BacTiter-Glo growth, 24 h; series mostly up to 46.1 µM; growth rescue (activation): at the top concentration
# Summary of the method: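 TDP-43-expressing yeast, pregrown in raffinose, seeded at OD600 0.02 in galactose medium with compound for 24 hr at 30 deg C. Growth read by BacTiter-Glo luminescence, so rescue of toxicity appears as activation.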
row,Structure (SMILES),growth rescue (activation)
1,CCOc1ccc(N2CC(C(=O)N3CC(C)OC(C)C3)CC2=O)cc1 (stereo not drawn),inactive: -7.52%
2,CC1(CCl)N([O-])C2=C(CCCC2)[N+]1=O (stereo not drawn),inactive: -6.76%
3,O=S1(=O)CCC(NC(=S)Nc2ccc3ccccc3c2)C1 (stereo not drawn),inactive: 6.66%
4,CC1(c2ccc(OC(F)F)cc2)NC(=O)N(CC(=O)Nc2ccc(S(N)(=O)=O)cc2)C1=O (stereo not drawn),inactive: -8.83%
5,Cc1nn(-c2ccccc2)c(C)c1/C=N/NC(=O)CSc1nc2ccccc2c(=O)n1-c1ccccc1,inactive: -1.34%
6,O=[N+]([O-])c1ccc(-c2csc(NN=C3CCCC3)n2)cc1,inactive: 28.5%
7,NC(=O)CSc1nnc(Cc2ccc3c(c2)OCO3)o1,inactive: -7.08%
8,Cc1ccc(NC(=O)CN(C)C(=O)c2cn(Cc3ccccc3)nc2-c2cccnc2)cc1,inactive: 4.23%
9,Cc1ccccc1-c1cnc(C(O)c2ccc(F)cc2)[nH]1 (stereo not drawn),inactive: 13.4%
10,CC(Sc1nc(C(C)(C)C)cc(-c2ccccc2)c1C#N)C(=O)Nc1ccccc1 (stereo not drawn),inactive: 5%
11,CCOc1ccc2nc(NC(=O)/C=C/c3ccc4c(c3)OCO4)sc2c1,inactive: -3.04%
12,Cc1ccnc(NC(=O)CCS(=O)(=O)c2ccccc2)c1,inactive: 6.65%
13,c1ccc(NNC2=NCCS2)cc1,inactive: -2.79%
14,Cc1c(C(=O)Nc2ccccc2[N+](=O)[O-])csc1-c1ccccc1,inactive: 17.1%
15,CCCNC(=O)C1(C)CCN(C(=O)COCc2ccccc2)C1 (stereo not drawn),inactive: -7.22%
16,COC(=O)c1ccc(CNC(=O)COC(=O)Cc2ccsc2)cc1,inactive: -1.48%
17,Cc1cc(NC(=O)CCN2C(=O)/C(=C\c3ccccc3Cl)SC2=S)no1,inactive: -0.162%
18,Cc1ccsc1C(=O)N1CCCC(CO)(Cc2ccccc2F)C1 (stereo not drawn),inactive: 27.8%
19,Cc1cccc(N2CCN(C(=O)c3ccc(S(=O)(=O)N(C)c4ccccc4)cc3)CC2)c1C,inactive: 4.23%
20,CN(C)S(=O)(=O)c1cccc(C(=O)NCC(=O)NC2CCN(Cc3ccccc3)CC2)c1,inactive: -12.8%
21,COc1ccc(C(=O)NC(=S)Nc2cc(C)ccn2)cc1[N+](=O)[O-],inactive: -5.07%
22,CC(C)(C)c1ccc(O)c(N=Cc2cc3c(cc2[N+](=O)[O-])OCO3)c1,inactive: -2.89%
23,CSCCC(NC(=O)c1ccc(Cl)cc1)C(=O)OCC(=O)c1ccc[nH]1 (stereo not drawn),inactive: 27.1%
24,COc1ccc(C(=O)C2CCCN(Cc3cn[nH]c3-c3ccc(F)cc3)C2)cc1OC (stereo not drawn),inactive: 8.76%
25,O=C(O)/C=C\C(=O)N1CCc2ccccc21,inactive: 23.7%
26,CN1CCN(CC(=O)Nc2c(C(=O)c3ccccc3)oc3ccccc23)CC1,inactive: -3.9%

row,Structure (SMILES),growth rescue (activation)
1,COc1ccc(N/C=C(\C#N)c2ccc(OCCCF)cc2)cc1,inactive: 38.2%
2,CCOc1ccc(S(=O)(=O)NCc2ccc(C)cc2)c2cccnc12,inactive: 30.4%
3,CC(C)NC(=O)NC(=O)COC(=O)CCCSc1nc2ccccc2s1,inactive: -0.528%
4,NC(Cc1ccccc1)c1csc(Nc2ccc(C(=O)NCCCO)cn2)n1 (stereo not drawn),inactive: 5.91%
5,COc1ccc(Cl)cc1NC(=S)N1CCN(c2ncccn2)CC1,inactive: 23.5%
6,O=C(O)COc1ccccc1/C=N/Nc1ccc(S(=O)(=O)N2CCOCC2)cc1[N+](=O)[O-],inactive: -2.96%
7,CC(C)c1csc(CN2CCC(CO)(Cc3ccccc3)CC2)n1,inactive: 12%
8,COC(=O)CSc1nc2c(c(=O)n(C)c(=O)n2C)n1CCCc1ccccc1,inactive: 1.28%
9,COc1ccc(F)cc1-c1cc(C(=O)NCc2cccc(C(F)(F)F)c2)[nH]n1,inactive: 22.4%
10,N#CC(C#N)=C(Nc1ccc(F)cc1)SCc1cccc(Br)c1,inactive: -79.3%
11,Cc1ccc2c(COC(=O)c3ccccc3Br)cc(=O)oc2c1,inactive: -8.55%
12,Cc1cc(C(=O)COc2ccc3ccc(=O)oc3c2)c(C)n1Cc1cccs1,inactive: -3.28%
13,CCNC(=O)NC(=O)C(C)Sc1ccc2c(c1)OCCO2 (stereo not drawn),inactive: 33.1%
14,CC(=O)N1CCN(C(=O)C2(NC(=O)Nc3ccc(C)cc3)CCCCC2)CC1,inactive: 14.2%
15,CC(/C=C1\SC(=S)N(NC(=O)c2ccccc2C)C1=O)=C\c1ccccc1,inactive: 5.98%
16,CCN(CC)S(=O)(=O)c1ccc2c(c1)N(CC(=O)Nc1cccc(C#N)c1)C(=O)CO2,inactive: 2.84%
17,CN(c1ccccc1)S(=O)(=O)c1cccc(NC(=O)C2=NNC(=O)CC2)c1,inactive: -15.2%
18,CCc1ccc(OCC(=O)N2CCc3ccccc32)cc1,inactive: 12.2%
19,O=C(CCC1CCCN(C(=O)C2CCCC2)C1)NCc1ccc(F)c(F)c1 (stereo not drawn),inactive: -0.85%
20,Cc1cc(NC(=O)CCC(=O)N(Cc2ccccc2)C(C(=O)NC2CCCC2)c2ccc(C)o2)no1 (stereo not drawn),inactive: 17.8%
21,NC(=O)c1ccc(NC(=O)COC(=O)CC2CC3CCC2C3)cc1 (stereo not drawn),inactive: 11%
22,CCn1nc(C)c(CN2CCC(n3nccc3NC(=O)Cc3ccccc3)CC2)c1C,inactive: 6.89%
23,CCOC(=O)c1c(CN2CCN(CCO)CC2)n(-c2ccccc2)c2cc(Br)c(O)cc12,inactive: 2%
24,COc1ccc(C2NCCc3c2[nH]c2ccccc32)cc1CSc1nc2ccccc2s1 (stereo not drawn),inactive: -2.02%
25,COc1ccc(NC(=O)c2ccc(NC(=O)C3COc4ccccc4O3)cc2)c(OC)c1 (stereo not drawn),inactive: 7.07%
26,O=C(NCc1ccccc1)c1cc(C2CCCN(S(=O)(=O)c3ccccc3)C2)on1 (stereo not drawn),inactive: 5.69%

row,Structure (SMILES),growth rescue (activation)
1,COc1cccc(CC(=O)Nc2ccc(S(=O)(=O)N3CCCCC3)cc2)c1,inactive: 16.5%
2,COc1ccc(CCNC(=O)c2ccc(Br)cc2)cc1,inactive: -4.1%
3,COc1ccc(CNC(=O)C2(c3ccc(Cl)cc3)CC2)cc1,inactive: -0.363%
4,COc1ccc(N2C(=O)NC(=O)C2=O)cc1,inactive: -5.5%
5,O=C(Cc1ccsc1)OCC(=O)c1ccccc1,inactive: 18.2%
6,O=C(COc1ccccc1[N+](=O)[O-])N/N=C/c1cccs1,inactive: 18%
7,O=C(c1cc(COc2c(F)cccc2F)on1)N1CCC(c2ccccc2F)C1 (stereo not drawn),inactive: 13.6%
8,CN(C)c1ccc(CN2CCC(C(=O)NC(c3ccc(F)cc3)c3ccc4ccccc4n3)CC2)cc1 (stereo not drawn),inactive: 13.7%
9,CCN(CC)c1ccc(C(=O)OCC(=O)Nc2ncccn2)cc1,inactive: 8.37%
10,O=C1N(c2ccccc2)C[C@@H]2C[C@@H](c3cccc4c3OCO4)N3CCC[C@@]123,inactive: -17%
11,O=C(NC1CCCC1)c1ccccc1-c1nc2ccccc2[nH]1,inactive: 19%
12,Cc1ccc(S(C)(=O)=O)cc1C(=O)N1CC(C(N)=O)Oc2ccccc21 (stereo not drawn),inactive: -6.7%
13,O=c1[nH]c(CN2CCN(c3ccc(F)cc3)CC2)nc2ccccc12,inactive: 21.9%
14,COc1ccc(C2CC(c3cc(Br)ccc3F)n3nnnc3N2)cc1 (stereo not drawn),inactive: 33.1%
15,CC(=O)c1c(Cl)nc2cccc3c2c1-c1ccccc1C3=O,inactive: -1.84%
16,CCOC(=O)c1cc[n+](CC(=O)c2ccc(F)cc2)cc1,inactive: 21.7%
17,O=C(NC(Cc1c[nH]c2ccccc12)C(=O)O)/C(=C\c1ccc2c(c1)OCO2)NC(=O)c1ccccc1 (stereo not drawn),inactive: 16.7%
18,CCCNS(=O)(=O)c1ccc(CCC(=O)Nc2ccc3c(c2)OCCO3)cc1,inactive: 13.7%
19,Cc1cccc(C(C(=O)NC2CCCC2)N(C(=O)c2csnn2)C2CCCC2)c1 (stereo not drawn),inactive: 8.11%
20,COc1ccc(N(C(=O)Cn2nnc3ccccc32)C(C(=O)NC(C)(C)C)c2ccc(OC)c(O)c2)cc1 (stereo not drawn),inactive: -8.9%
21,CCN(CC)S(=O)(=O)c1ccc(OC)c(NC(=O)c2cccs2)c1,inactive: 23.6%
22,CCOC(=O)C1(CCOc2ccccc2)CCN(Cc2cc(OC)c3c(c2)OCO3)CC1,inactive: 4.02%
23,CC[N+](CC)(CC#Cc1ccccc1)CC#Cc1ccccc1,inactive: -2.57%
24,CCCOc1ccc(C2c3c(oc4ccccc4c3=O)C(=O)N2c2ccc(C)cn2)cc1OCC (stereo not drawn),inactive: 7.36%
25,Cn1c(SCC(=O)N2CCOCC2)nnc1-c1ccncc1,inactive: -3.85%
26,Cc1ccc(O)c(NC(=O)CSc2n[nH]c(C)c2[N+](=O)[O-])c1,inactive: 1.47%

row,Structure (SMILES),growth rescue (activation)
1,Cc1c(NC(=S)NC(=O)c2cc3ccccc3o2)c(=O)n(-c2ccccc2)n1C,inactive: 5.11%
2,CC1CCCN(C(=O)c2cc3c(=O)n4ccccc4nc3s2)C1 (stereo not drawn),inactive: 10.1%
3,O=[N+]([O-])c1ccc(-c2ccc(/C=N/Nc3nc(NCc4ccccc4)nc(N4CCOCC4)n3)o2)cc1,inactive: 15.1%
4,O=C(NC1CCCCCC1)c1ccc(Cl)c(S(=O)(=O)N2CCOCC2)c1,inactive: 7.18%
5,COc1ccc(NC(=O)c2cc(C3CCCCN3C(=O)c3cc(OC)c(C)c(OC)c3)on2)c(C)c1 (stereo not drawn),inactive: 10.5%
6,CCc1cc2c(=O)n(CC(=O)NCCc3ccc(OC)c(OC)c3)cnc2s1,inactive: -8.25%
7,CC(C)[C@H](NC(=O)c1nn(Cc2ccccc2)c(=O)c2ccccc12)C(=O)O,inactive: 14.9%
8,CC(O)(C#CCN1CCOCC1)c1ccccc1 (stereo not drawn),inactive: 10.1%
9,Cc1cc(OCc2ccc(C(=O)Nc3ccc(C(=O)O)cc3)o2)ccc1Cl,inactive: 10.2%
10,COc1cc2cc(C(=O)N3CCN(c4ccccc4OC)CC3)[nH]c2cc1OC,inactive: 20.7%
11,CCOP(=O)(OCC)C(NC(=O)c1cc([N+](=O)[O-])cc([N+](=O)[O-])c1)C(F)(F)F (stereo not drawn),inactive: 7.92%
12,O=c1c2ccccc2nnn1CSc1nnc(-c2cccnc2)n1-c1ccccc1F,inactive: 1.77%
13,CC(c1ccco1)N(C(=O)c1cccc(S(=O)(=O)N(C)C)c1)c1ccccn1 (stereo not drawn),inactive: 3.77%
14,O=C(Nc1sc2c(c1C(=O)NCCO)CCCC2)c1ccco1,inactive: 23.3%
15,CC(C)(C)c1ccc(S(=O)(=O)CC(O)CSc2nc3c(cc2C#N)CCCC3)cc1 (stereo not drawn),inactive: 30.4%
16,O=C(NC1CCS(=O)(=O)C1)c1ccc(Br)s1 (stereo not drawn),inactive: 4.72%
17,Cc1ccc(S(=O)(=O)Nc2cc(C)cn(Cc3ccc(F)cc3)c2=O)cc1,inactive: 12.8%
18,CC(=O)Nc1ccc(C(=O)OCC(=O)c2ccc(F)cc2)cc1,inactive: -21.7%
19,CCCCNC(=O)c1ccc(Cn2c(=S)[nH]c3c([nH]c4ccc(OC)cc43)c2=O)cc1,inactive: 3.28%
20,COc1cccc(/C(O)=C/C(=O)C(=O)Nc2ccc(S(=O)(=O)NC(C)=O)cc2)c1,inactive: -24%
21,C=CCn1c(SCC(=O)Nc2nncs2)nnc1-c1ccco1,inactive: -7%
22,Cc1cccc(C(=O)Nc2cccc(C(=O)N/N=C/c3ccc4c(c3)OCO4)c2)c1,inactive: 0.885%
23,COc1ccc(S(=O)(=O)NCC2CCCO2)cc1C(=O)O (stereo not drawn),inactive: -8.92%
24,COCCN(C(=O)CNC(=O)c1ccco1)C(C(=O)NC1CCCC1)c1ccc(F)cc1 (stereo not drawn),inactive: 9.27%
25,COc1ccc(CNC(=O)CN2C(=O)c3ccccc3S2(=O)=O)cc1,inactive: -1.25%
